Measured values reported in the supplement of paper PMC8285479.
Where a name gives a salt, the structure may show the parent alone. ± gives the standard deviation of the averaged measurements. The full ranking holds about 1,900 compounds; the median of “normalised cell viability (NPI; 0 = phenylarsine oxide control, 1 = DMSO control)” is about 1, and the lowest 2% start at about 0.039. The list shows a part of the results.

Test system: NCI-H1944
Assay: normalised cell viability (NPI; 0 = phenylarsine oxide control, 1 = DMSO control) (fraction of DMSO control); NCI-H1944 is a non-small cell lung cancer line; higher = more viable cells (less compound toxicity)
Conditions: 6 days
[1] = glucocorticoid arm: hydrocortisone 2.75 uM co-treatment, compound 1 µM
[2] = glucocorticoid arm: hydrocortisone 2.75 uM co-treatment, compound 5 µM
[3] = glucocorticoid arm: hydrocortisone 2.75 uM pre-treated 2 days and continued, compound 1 µM
[4] = glucocorticoid arm: hydrocortisone 2.75 uM pre-treated 2 days and continued, compound 5 µM
[5] = glucocorticoid arm: vehicle, compound 1 µM
[6] = glucocorticoid arm: vehicle, compound 5 µM
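Also: CTB read-out in 384-well plates, mean of triplicate wells, normalised per plate against 1 µM phenylarsine oxide and 0.1% DMSO, compounds added 24 h after seeding.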

| Compound | normalised cell viability [1] | normalised cell viability [2] | normalised cell viability [3] | normalised cell viability [4] | normalised cell viability [5] | normalised cell viability [6] |
| --- | --- | --- | --- | --- | --- | --- |
| COc1ccccc1NC(=O)Nc1nc(-c2cccnc2)nc2ccccc12 | 1.023 ± 0.0058 | 1.03 ± 0.017 | 1.05 ± 0.047 | 1.03 ± 0.015 | 1.03 | 1.037 ± 0.0058 |
| COCc1nc2c([nH]1)c(=O)n(C)c(=O)n2CC(C)C [8-Methoxymethyl-3-isobutyl-1-methylxanthine] | 0.999 ± 0.001 | 0.997 ± 0.029 | 1 ± 0.016 | 1.03 ± 0.075 | 1.005 ± 0.0087 | 1.01 ± 0.01 |
| COC(=O)Nc1ccc(-c2nc(N3CCOCC3)c3cnn(C4CCN(C(=O)OC)CC4)c3n2)cc1 | 0.505 ± 0.038 | 0.753 ± 0.013 | 0.563 ± 0.029 | 0.769 ± 0.067 | 0.476 ± 0.02 | 0.924 ± 0.015 |
| CCCCCCCCCC[Si](C)(C)CCC(=O)NC(Cc1ccc(C)cc1)c1ccccc1 (stereo not given) [Sandoz 58-035] | 0.992 ± 0.016 | 0.9963 ± 0.0055 | 0.985 ± 0.0056 | 0.982 ± 0.0014 | 0.9753 ± 0.0038 | 0.9807 ± 0.0021 |
| COC(=O)N[C@H](C(=O)N[C@@H](Cc1ccccc1)[C@@H](O)CN(Cc1ccc(-c2ccccn2)cc1)NC(=O)[C@@H](NC(=O)OC)C(C)(C)C)C(C)(C)C [Atazanavir sulfate] | 0.997 ± 0.014 | 1.03 | 1.013 ± 0.0058 | 1.02 | 1 | 1.017 ± 0.0058 |
| CCCCNc1cc(C(=O)O)cc(S(N)(=O)=O)c1Oc1ccccc1 [Bumetanide] | 1.01 ± 0.011 | 1.02 ± 0.01 | 1.01 ± 0.011 | 0.992 ± 0.026 | 0.9813 ± 0.0011 | 0.9923 ± 0.004 |
| OC(CCN1CCCCC1)(c1ccccc1)C1CCCCC1 (racemic) [DL-Trihexyphenidyl hydrochloride] | 0.99967 ± 0.00058 | 0.998 ± 0.013 | 1.03 ± 0.021 | 1.02 ± 0.011 | 0.995 ± 0.007 | 1.001 ± 0.0085 |
| CCCCCC(O)c1cccc(OCc2ccc3ccccc3n2)c1 (stereo not given) | 0.999 ± 0.001 | 1.02 ± 0.021 | 1.02 ± 0.023 | 1.002 ± 0.0067 | 0.981 ± 0.0069 | 0.9947 ± 0.004 |
| COc1cc2ncnc(Nc3cccc(Cl)c3)c2cc1OC [Tyrphostin AG 1478] | 0.965 ± 0.007 | 0.836 ± 0.026 | 1.01 ± 0.01 | 0.968 ± 0.025 | 1.01 | 0.903 ± 0.022 |
| COc1cc2ncnc(Nc3cccc(Cl)c3)c2cc1OC [AG-1478 (Tyrphostin AG-1478)] | 0.944 ± 0.016 | 0.866 ± 0.046 | 0.9563 ± 0.004 | 0.919 ± 0.015 | 0.906 ± 0.019 | 0.855 ± 0.036 |
| CCOC(=O)c1cnc2c(cnn2CC)c1NN=C(C)C [Etazolate hydrochloride] | 1.003 ± 0.0061 | 0.996 ± 0.012 | 1.001 ± 0.0083 | 1.003 ± 0.0064 | 1.01 | 1.003 ± 0.0058 |
| C[C@]12CCC3=C4CCC(=O)C=C4CC[C@H]3[C@@H]1CC[C@@]2(O)CC#N [Dienogest] | 1.01 ± 0.016 | 1.06 ± 0.015 | 1.027 ± 0.0058 | 1.06 ± 0.015 | 1.02 ± 0.015 | 1.01 ± 0.01 |
| O=C(O)c1cc2cc(Cc3cccnc3)ccc2o1 [Furegrelate sodium salt] | 1.003 ± 0.0058 | 0.9777 ± 0.0096 | 0.996 ± 0.012 | 0.976 ± 0.03 | 0.999 ± 0.011 | 0.989 ± 0.0072 |
| NC(=O)c1ccc(I)c([N+](=O)[O-])c1 [Iniparib (BSI-201)] | 0.9923 ± 0.0093 | 1.04 ± 0.015 | 0.99 ± 0.013 | 1.01 ± 0.016 | 0.999 ± 0.011 | 0.9953 ± 0.0046 |
| COc1ccc(C2=N[C@@H](c3ccc(Cl)cc3)[C@@H](c3ccc(Cl)cc3)N2C(=O)N2CCNC(=O)C2)c(OC(C)C)c1 [Nutlin-3] | 0.992 ± 0.011 | 0.929 ± 0.02 | 0.996 ± 0.016 | 1.01 ± 0.016 | 0.9923 ± 0.0075 | 0.747 ± 0.037 |
| c1ccc(C2CN3CCSC3=N2)cc1 (single isomer, unassigned; (-)) [(-)-Tetramisole hydrochloride] | 1.017 ± 0.0058 | 1.01 ± 0.015 | 1.02 ± 0.015 | 1.02 ± 0.015 | 1.02 | 1.02 ± 0.015 |
| c1ccc(C2CN3CCSC3=N2)cc1 (single isomer, unassigned; (-)) [Tetramisole hydrochloride] | 1.01 ± 0.015 | 1 ± 0.028 | 1 ± 0.033 | 1.017 ± 0.0058 | 1.013 ± 0.0058 | 1.017 ± 0.0058 |
| N#C/C(=C\c1ccc(O)c(O)c1)C(=O)NCCCc1ccccc1 [Tyrphostin AG 555] | 1 ± 0.014 | 0.996 ± 0.013 | 0.934 ± 0.14 | 0.985 ± 0.016 | 1.01 ± 0.01 | 1.017 ± 0.0058 |
| CCCNC(=O)Nc1ccc(Oc2ncnc3cc(OC)c(OC)cc23)cc1Cl | 0.991 ± 0.012 | 1.02 ± 0.021 | 1.01 ± 0.013 | 1.02 ± 0.032 | 1.002 ± 0.0072 | 1.007 ± 0.0058 |
| O=C(O)c1cc(=O)c2c(Cl)cc(Cl)cc2[nH]1 [5,7-Dichlorokynurenic acid] | 1.001 ± 0.009 | 0.975 ± 0.019 | 0.999 ± 0.011 | 0.9823 ± 0.0015 | 1.001 ± 0.0081 | 1.003 ± 0.0058 |
| NC(=O)c1ccc(-c2nc(-c3ccccn3)c(-c3ccc4c(c3)OCO4)[nH]2)cc1 | 1.006 ± 0.0075 | 1.02 ± 0.01 | 1.007 ± 0.0058 | 1.013 ± 0.0058 | 1.003 ± 0.0061 | 0.997 ± 0.013 |
| Cc1cn(-c2cc(NC(=O)c3ccc(C)c(Nc4nccc(-c5cccnc5)n4)c3)cc(C(F)(F)F)c2)cn1 [Nilotinib (AMN-107)] | 1.02 ± 0.01 | 1.05 ± 0.01 | 1.03 ± 0.01 | 1.05 ± 0.023 | 1.017 ± 0.0058 | 1.017 ± 0.0058 |
| Cc1cn(-c2cc(NC(=O)c3ccc(C)c(Nc4nccc(-c5cccnc5)n4)c3)cc(C(F)(F)F)c2)cn1 [Nilotinib] | 1.05 ± 0.035 | 1.093 ± 0.0058 | 1.04 ± 0.01 | 1.04 ± 0.01 | 1.013 ± 0.0058 | 1.03 ± 0.01 |
| CC(C)(C)c1ccc(S(=O)(=O)/C=C/C#N)cc1 | 0.9913 ± 0.008 | 0.41 ± 0.055 | 0.9847 ± 0.007 | 0.9755 ± 0.0021 | 0.972 ± 0.0092 | 0.00936 ± 0.004 |
| O=[N+]([O-])c1ccc(CSc2ncnc3c2ncn3[C@@H]2O[C@H](CO)[C@@H](O)[C@H]2O)cc1 [S-(4-Nitrobenzyl)-6-thioinosine] | 0.9813 ± 0.0047 | 0.968 ± 0.027 | 0.987 ± 0.018 | 0.996 ± 0.059 | 0.9973 ± 0.0046 | 0.9917 ± 0.0097 |
